Test results published in PubChem BioAssay AID504832 (National Center for Advancing Translational Sciences (NCATS), 2011).
In all, about 310,000 compounds went through this assay and about 18,000 (5.8%) were called active. The shares of active, inactive and inconclusive entries below differ from those in the screen. Calls follow the shape of the dose curve; as a rule, active = well fitted inhibition curve with a large enough effect; inconclusive = small, poorly fitted or top-dose-only effect, or another doubt; inactive = no such curve, though single readings can be large or run the other way. Potencies of inconclusive entries are left out as doubtful fits.

assay: Primary qHTS for delayed death inhibitors of the malarial parasite plastid, 48 hour incubation; conditions: P. falciparum luciferase growth in erythrocytes; series mostly up to 28.7 µM
Outline: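 Luciferase-expressing parasites in RBCs, 2% Hct / 0.1% parasitemia final; RPMI 1640 + 0.5% Albumax; 37 C, 5% CO2, one generation; luminescence read-out, lower signal = inhibition.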
Potency is read from the fitted curve at half-maximal effect; tags tell the direction and shape of the fitted curve.

SMILES	Potency
COc1ccc(CCC(C)NC(=O)CCc2ccccc2)c(OC)c1 (configuration not stated)	active: 9.28 µM
CCCCn1c(N)c(N(CC(C)C)C(=O)C2CCN(S(=O)(=O)c3ccc(C)cc3)CC2)c(=O)[nH]c1=O	inconclusive [inhibitor, single point]
Cc1cccc(NC(=O)c2sc(Cl)nc2C)c1C	inactive
CCOC(=O)Cc1csc(NC(=O)CSc2nnc(Cc3csc(N)n3)n2C)n1	inconclusive [inhibitor, single point]
O=C(NCCc1ccccn1)C(F)(F)C(F)(F)C(F)(F)C(F)(F)C(F)(F)C(F)(F)C(F)(F)C(F)F	inconclusive [inhibitor, single point]
O=C(N/N=C/c1ccc(F)c(F)c1)c1cccc(S(=O)(=O)N2CCCCC2)c1	inconclusive [inhibitor, partial curve, poor fit]
Cc1cc2c(c(=O)o1)C1O[C@](CCCCN3C(=O)c4ccccc4C3=O)(Cc3cc(C#N)ccc31)O2	inconclusive [inhibitor, single point]
Cc1ccc(NC(=O)NC2CC(=O)N(c3ccc4c(c3)OCCO4)C2)c(C)c1 (configuration not stated)	inconclusive [inhibitor, single point]
CCOC(=O)CSC1=Nc2ccccc2C2=NC(CC(=O)NCc3ccccc3)C(=O)N12 (configuration not stated)	inconclusive [inhibitor, single point]
CN(C)C(=O)NC(NC(=S)Nc1ccccc1)C(Cl)(Cl)Cl (configuration not stated)	inconclusive [inhibitor, single point]
O=C(Nc1nc2ccccc2s1)C1CCN(S(=O)(=O)c2cc([N+](=O)[O-])ccc2Cl)CC1	inconclusive [inhibitor, single point]
N#C/C(=C\c1ccc(-c2ccc(C(=O)O)cc2)o1)c1nc2ccccc2[nH]1	inconclusive [inhibitor, single point]
Cc1cc(O)c(C(=O)Nc2cccc(Cl)c2)c(=O)n1C	inactive
O=C(/C=C/c1ccccc1)NCCc1nc2ccccc2[nH]1	inactive
O=C(COc1ccc(C(=O)c2ccccc2)cc1)Nc1cccnc1	inactive
CC(=O)C1=C(O)C(=O)N(Cc2ccccc2)C1c1ccc(N(C)C)cc1 (configuration not stated)	inactive
CN(Cc1ccccc1)C(=O)c1ccc(NC(=O)Cc2cccc(NC(=O)C3CCN(C(=O)C4CC4)CC3)c2)cc1	inconclusive [inhibitor, partial curve]
O=c1c2cnn(-c3ccccc3)c2ncn1Cc1ccccn1	inconclusive [inhibitor, full curve, poor fit]
Clc1ccc(Cc2nn3c(Cn4nnc5ccccc54)nnc3s2)cc1	inconclusive [inhibitor, single point]
O=C(Nc1ccccc1F)N(Cc1ccc(F)cc1)Cc1nc2ccccc2c(=O)[nH]1	inactive
COc1ccc(SC[C@H](Cc2ccccc2)N2CC[C@@H](C)CCC2=O)cc1	active: 11.7 µM

SMILES	Potency
Cc1cc(C)n(-c2ccc(NC(=O)C3CCN(Cc4cnc(C)s4)CC3)cc2)n1	inconclusive [inhibitor, partial curve]
CCOc1ccc2ccccc2c1C(=O)N1CCN(c2ccccc2)CC1	inconclusive [inhibitor, single point]
CCOC(=O)CN(C(=O)CSc1nnc(COc2ccc(OC)cc2)n1C)c1ccccc1	inconclusive [inhibitor, partial curve]
CCn1c(SCc2ccc(C)cc2)nnc1-c1nn(-c2ccccc2)ccc1=O	inconclusive [inhibitor, partial curve]
COCCNc1nc(-c2cc(C)c(C)cc2C)cs1	inconclusive [inhibitor, single point]
COC(=O)c1ccc(NC(=O)Nc2ccc(OC)c(OC)c2)cc1	inactive
CC(C)=CCC/C(C)=C/CO	inactive
CCOC(=O)c1ccc(NC(=O)c2nc[nH]c2C(=O)N[C@@H](CC(C)C)C(=O)OCc2ccccc2)cc1	inconclusive [inhibitor, single point]
CCOc1ccc(S(=O)(=O)N2CCC(C(=O)N3CCOCC3)CC2)cc1C	inactive
COc1ccc2[nH]c(C(=O)N3CCNCC3)cc2c1OC	inconclusive [inhibitor, single point]
C=CCn1nnnc1-c1cc(Cl)cc(Cl)c1	inconclusive [inhibitor, partial curve, poor fit]
COc1ccccc1/C=N/NC(=O)c1ccc2c(c1)OCO2	inconclusive [inhibitor, full curve, poor fit]
CC(Sc1ncnc2ccccc12)C(=O)Nc1ccc2c(c1)OCO2 (configuration not stated)	inconclusive [inhibitor, partial curve, poor fit]
O=C(NNc1c(Cl)cncc1Cl)c1cccs1	inconclusive [inhibitor, full curve, poor fit]
Cc1nn(Cc2c(Cl)cccc2Cl)c(Cl)c1/C=N/NC(=O)c1cccnc1	inconclusive [inhibitor, partial curve, poor fit]
COc1ccc(CNC(c2ccccc2)c2ccc(Cl)cc2)cc1 (configuration not stated)	inactive
Cc1cc(Br)c(OCC(=O)NN)c2c1CCC2	inconclusive [inhibitor, single point]
Cc1ccc(S(=O)(=O)N2CCN(CC(=O)Nc3ccccc3Cl)CC2)cc1	inconclusive [inhibitor, single point]
CCN(C(=O)CSc1nc2ccc(O)cc2c(=O)n1-c1ccc(OC)c(OC)c1)C1CCS(=O)(=O)C1 (configuration not stated)	inconclusive [inhibitor, single point]
CC(=O)C1CCCN(C(=O)c2ccc3nc(Cc4cccc(Cl)c4)oc3c2)C1 (configuration not stated)	inconclusive [inhibitor, partial curve, poor fit]
Cc1cccc(NC(=S)NCC(c2ccccc2)N(C)C)c1 (configuration not stated)	inconclusive [inhibitor, single point]
